Data: PubChem BioAssay AID463173 (ICCB-Longwood Screening Facility, Harvard Medical School, 2010)
Out of some 52,000 compounds screened, about 4,300 (8.3%) were called active. No stated cut-off is given here; in the data, active means survival mostly below about 52% (no sharp cut-off); inactive means mostly above about 56%. The list shows a part of the results.

Tested on: DeltatarO mutant
Assay: growth inhibition of S. aureus wild type versus tarO mutant, primary screen, teichoic acid synthesis inhibitors, RN4220, OD600 (AID 463173)
Conditions: OD600, 18 h, stronger effect = lower value, screened at 18.75 µg/mL (by protocol)

| Structure (SMILES) | survival |
| --- | --- |
| CCC(=O)N1CCc2cc(S(=O)(=O)CCC(=O)Nc3ccc(OC(F)(F)F)cc3)ccc21 | inactive: 83% |
| COc1ccc2nc3oc(C(=O)N4CCN(c5cc(C)ccc5C)CC4)cc3cc2c1 | inactive: 107% |
| COc1ccccc1N1CCN(C(=O)C(CCSC)NS(=O)(=O)c2ccc3c(c2)oc(=O)n3C)CC1 (stereo not given) | inactive: 87% |
| CC(C)Oc1ccc(CNC(=O)CCCN2C(=O)CCn3nc(-c4cccn4C)cc32)cc1 | inactive: 95% |
| COc1ccc(N2C(=O)CS(=O)(=O)C23C(=O)N(Cc2cccc(F)c2)c2ccccc23)cc1OC (stereo not given) | inactive: 73% |
| Cc1ccc(C)c(S(=O)(=O)c2nnn3c2nc(Nc2ccc(C)c(C)c2)c2sccc23)c1 | inactive: 77% |
| Cc1cc(=O)[nH]c2nnc(SCc3ccc(F)cc3)n12 | inactive: 78% |
| CCOC(=O)c1ccc(-n2c(CCC(=O)O)ccc2-c2ccc(Br)cc2)cc1 | active: 19% |
| COc1ccc(Cn2c(SCC(=O)NCc3ccc(Cl)cc3)nc3ccsc3c2=O)cc1 | inactive: 85% |
| CC1CN(CN2C(=O)CCC2=O)CC(C)O1 (stereo not given) | inactive: 78% |
| Cc1cc(Cl)ccc1OCC(=O)Nc1c(Cl)ccc2nsnc12 | inactive: 77% |
| O=C(Nc1c(C(=O)N2CCN(c3ccccc3)CC2)oc2ccccc12)c1ccc(Br)o1 | inactive: 81% |
| O=C(NCc1cccs1)c1ccc(Cn2c(SCc3ccccc3)nc3cccnc32)cc1 | inactive: 71% |
| O=C(OCC1CCNCC1)c1ccc2c(c1)OCO2 | inactive: 94% |
| COc1cccc(CNCCSc2nnnn2C)c1OCc1ccccc1Cl | inactive: 65% |
| Cc1nn2c(=O)cc(COC(=O)c3ccco3)nc2s1 | inactive: 89% |
| COc1cccc(CNS(=O)(=O)c2ccc3c(c2)CCN3C(=O)C2CCC2)c1 | inactive: 68% |
| CCc1cc2ccccc2nc1Cl | inactive: 56% |
| O=C(Nc1ccc(F)cc1)N1CCN(c2ccccc2F)CC1 | inactive: 179% |
| Cn1c(=O)c2c(nc(SCC(=O)Nc3ccccc3)n2Cc2ccccc2F)n(C)c1=O | active: 43% |
| CCOc1ccc(CNC(=O)CSc2cc(=O)n(CC)c3ccccc23)cc1 | inactive: 62% |
| Nc1c(C(=O)Nc2ccc(OC(F)(F)F)cc2)nnn1Cc1ccccc1 | inactive: 83% |
| COCCN(C(=O)c1ccccc1)c1nnc(-c2ccncc2)s1 | inactive: 94% |

| Structure (SMILES) | survival |
| --- | --- |
| CCc1cccc(C)c1Nc1c(-c2ccccc2)nc2sccn12 | inactive: 31% |
| Fc1ccc(CNc2ncnc3onc(-c4ccc(F)cc4)c23)cc1 | inactive: 91% |
| CCc1c(CN2CCN(c3cccc(C)c3C)CC2)csc1C | inactive: 76% |
| Cc1ccc(C#N)c(=O)n1CC(=O)Nc1ccccc1C(F)(F)F | inactive: 162% |
| O=C(C1COc2ccccc2O1)N(Cc1cccnc1)c1nc2ccc(Cl)cc2s1 (stereo not given) | inactive: 76% |
| CSC1=NC2(CCN(C(=O)NC3CCCCC3)CC2)N=C1c1ccc(C)cc1 | inactive: 67% |
| COc1ccc(N2Cc3cccc(C(=O)Nc4cc(C)cc(C)c4)c3C2=O)cc1 | inactive: 80% |
| O=C(C1COc2ccccc2O1)N1CCN(c2nc3ccc(F)cc3s2)CC1 (stereo not given) | inactive: 88% |
| Cc1noc(-c2ccc(-c3noc(-c4cccc(F)c4)n3)cc2)n1 | inactive: 76% |
| NC(=O)C1CCN(C(=O)c2cccc(NC(=O)c3nsc4ccccc34)c2)CC1 | inactive: 88% |
| Cc1cc(F)ccc1NC(=O)CCS(=O)(=O)c1ccc2c(c1)CC(C)N2C(=O)C1CC1 (stereo not given) | inactive: 81% |
| COc1ccccc1CNC(=O)CCn1nc(C)c2c(C)n(-c3ccccc3)nc2c1=O | inactive: 71% |
| O=C(c1ccccc1NS(=O)(=O)c1cccc2nsnc12)N1CCOCC1 | inactive: 80% |
| Brc1ccc(-c2nc3ccccn3c2Nc2ccc3c(c2)OCCO3)o1 | inactive: 85% |
| O=S(=O)(c1ccccc1)c1nnn2c1nc(NCc1ccc(F)cc1)c1sccc12 | inactive: 92% |
| Cc1oc(-c2ccc(Cl)cc2)nc1CS(=O)CC(=O)N1CCN(c2cccc(C(F)(F)F)c2)CC1 (stereo not given) | inactive: 99% |
| COc1cccc(N2CCN(c3ncnc4c3nc3n4CCCCC3)CC2)c1 | active: 20% |
| CCOc1no[n+]([O-])c1-c1ccccc1 | inactive: 90% |
| O=C(NC1CCCCC1)c1ccc(Cn2c(SCc3ccc(F)cc3)nc3cccnc32)cc1 | active: 32% |
| Cc1ccc2c(c1)-c1onc(C(=O)N3CCN(c4ccc(Cl)cc4)CC3)c1CO2 | inactive: 63% |
| CCOC(=O)N1CCN(Cc2nc3cc(NC(=O)c4ccccc4[N+](=O)[O-])ccc3n2C(C)C)CC1 | inactive: 91% |
| Cc1ccc(-n2c3nc(=O)[nH]c(=O)c-3cc3c(C)nn(-c4ccccc4)c32)cc1Cl | inactive: 85% |
| Cc1cccc(C)c1NC(=O)NCCc1c[nH]c2ccccc12 | inactive: 78% |

| Structure (SMILES) | survival |
| --- | --- |
| CCCNC(=O)C1CCC(Cn2c(=O)c3sccc3n(Cc3ccccc3F)c2=O)CC1 (stereo not given) | inactive: 80% |
| COCCCn1c(=N)c(C(=O)NCc2ccco2)cc2c(=O)n3ccccc3nc21 | inactive: 152% |
| CCCN(CCC)CC(O)Cn1cc(/C=C/C(=O)c2ccc(C)cc2)c2ccccc21 (stereo not given) | active: -2% |
| COc1ccc(NC(=O)c2cc(S(=O)(=O)N3CCCCCC3)cn2C)c(OC)c1 | inactive: 80% |
| CC(C(=O)NCc1ccc(Cl)cc1)n1ccc2cc(S(=O)(=O)N3CCCCCC3)ccc21 (stereo not given) | inactive: 99% |
| CCOC(=O)c1c(S(=O)(=O)N2CCC(C(=O)NCc3ccc(F)cc3)CC2)c(C)n(C)c1C | inactive: 79% |
| CN(C)S(=O)(=O)c1ccc2c(c1)N(CC(=O)Nc1ccc(OC(F)(F)F)cc1)C(=O)CS2 | inactive: 78% |
| C=Cc1ccc(Cn2c(C(=O)O)c(CNC3CCCC3)c3ccc(C)cc32)cc1 | inactive: 89% |
| Cc1cccc(N(C)C(=O)CCS(=O)(=O)c2ccc3c(c2)oc(=O)n3C)c1 | inactive: 99% |
| COc1ccc(OCC(=O)NC2CC(=O)N(c3cccc(OC)c3)C2)cc1 (stereo not given) | active: 0% |
| O=C(/C=C/c1ccco1)Nc1cccc(-c2nc3ccccc3o2)c1 | inactive: 76% |
| Cc1ccccc1-c1noc(-c2cccnc2NCc2ccco2)n1 | inactive: 52% |
| CCOC(=O)c1c(C)[nH]c(C)c1S(=O)(=O)N1CCC(C(=O)N2CCN(c3cccc(Cl)c3)CC2)CC1 | inactive: 94% |
| Clc1ccc2[nH]c3nc4ccccc4nc3c2c1 | inactive: 78% |
| CC(=O)N1CCc2cc(C(=O)C[n+]3ccccc3)ccc21 | inactive: 91% |
| O=C(NCc1ccccc1Cl)C1CCCN(S(=O)(=O)c2cccc3nsnc23)C1 (stereo not given) | inactive: 91% |
| COc1ccc(OC)c(CNC(=O)c2c3c(nc4ccccc24)C(=O)N(C2CCCCC2)C3)c1 | inactive: 93% |
| O=C1c2cccc3c(N4CCCC4)ccc(c23)C(=O)N1c1ccccc1 | inactive: 96% |
| CCC(=O)N1CCc2cc(Br)cc(S(=O)(=O)N3CCN(c4ccc(C)cc4)C(C)C3)c21 (stereo not given) | inactive: 140% |
| CCOC(=O)c1c(C)[nH]c(C)c1S(=O)(=O)N1CCC(C(=O)N2CCN(c3ccccc3)CC2)CC1 | inactive: 90% |
| COc1ccc(CNC(=O)c2cc(-c3ccc(C)cc3)nc3n[nH]c(-c4ccc(Br)cc4)c23)cc1 | inactive: 74% |
| NS(=O)(=O)c1ccc(NC(=O)CN2C(=O)COc3ccc(Cl)cc32)cc1 | inactive: 71% |
| O=C(O)c1ccc2nc(-c3cc4cccc(O)c4oc3=O)[nH]c2c1 | inactive: 75% |

| Structure (SMILES) | survival |
| --- | --- |
| Cc1ccc(C)c(S(=O)(=O)c2nnn3c2nc(NC(C)C)c2sccc23)c1 | inactive: 40% |
| CCOc1ccc(Nc2ncnc3c2nc2n3CCCC2)cc1 | inactive: 83% |
| CCOC(=O)c1c(C)[nH]c(C)c1S(=O)(=O)N1CCCC(C(=O)Nc2ccc(C)cn2)C1 (stereo not given) | inactive: 74% |
| CCc1ccccc1Nc1nn2c(=O)c3ccc(C(=O)NCc4ccccc4OC)cc3nc2s1 | inactive: 73% |
| CCN(c1ccccc1)c1ccc2cc(S(=O)(=O)N3CCCC3)ccc2n1 | inactive: 95% |
| Cc1ccc(-n2nc(CO)c(C(=O)NCCCc3ccccc3)n2)cc1C | inactive: 115% |
| COc1ccccc1Cn1cc(C(=O)c2ccc(C)cc2)c(=O)c2cc(C)ccc21 | inactive: 112% |
| CCCn1c(SCC(=O)N2CCCc3ccccc32)nnc1C(C)C | inactive: 98% |
| c1ccc(CN2CCC(N3CCN(C4CCCCC4)CC3)CC2)cc1 | inactive: 67% |
| COc1ccccc1CCNC(=O)C1CCN(c2nnc(-n3cccc3CNc3ccc(C)cc3)s2)CC1 | inactive: 80% |
| COc1ccc(N2CCN(c3csc4ccc(Cl)cc4c3=O)CC2)cc1 | inactive: 90% |
| N/C(=N\c1nc2ccccc2o1)NC(=O)/C=C/c1ccco1 | inactive: 85% |
| COc1ccc(Cl)cc1NC(=O)c1cn(C2CCCCC2)c(=O)c2c1c1ccccc1n2C | inactive: 79% |
| CCOc1ccc(Nc2nc3cc(Cl)c(Cl)cc3nc2-n2nc(C)cc2C)cc1 | inactive: 87% |
| Cc1c(C(=O)N(Cc2ccc(N(C)C)cc2)CC2CCCO2)oc2ccc(Cl)cc12 (stereo not given) | inactive: 72% |
| CC(C)C(=O)Nc1ccccc1OCc1cc(=O)n2ccccc2n1 | inactive: 115% |
| CCOc1ccc(NC(=O)C2CCCN(c3ccc(Sc4ccc(C)cc4)nn3)C2)cc1 (stereo not given) | inactive: 90% |
| O=C(NC(=O)c1ccccc1)Nc1ccc(-c2cc(C(F)(F)F)nn2-c2ccccc2)cc1 | inactive: 83% |
| COC(=O)C(CCSC)NC(=O)c1cc2c(n(-c3ccc(Cl)cc3)c1=O)CCCC2=O (stereo not given) | inactive: 73% |
| N#CCCn1c(=O)[nH]c(=O)n(CCC#N)c1=O | inactive: 74% |
| CCC(Oc1ccccc1F)C(=O)N1CCC(c2nc3ccccc3s2)CC1 (stereo not given) | active: 2% |
